We go through two compounds from PubChem BioAssay (NCI).

For this experiment, the system named is NCI-H322M lung. The experiment is described as follows: NCI anticancer screen, dose series, 48 h.

The structures appear in SMILES notation.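 Briefly, cells in 96-well plates were exposed to five compound concentrations for 48 h, and endpoints were estimated by linear interpolation. GI50: concentration for 50% inhibition of growth. TGI is the concentration that stops growth completely.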

Take `Cc1sc(C(NC(=O)OCCn2c([N+](=O)[O-])cnc2C)C(F)(F)Cl)nc1-c1ccc(OC(F)(F)F)cc1` (centres undefined): the GI50 is 6.27 µM and the TGI amounted to 19.6 µM.
For `N#Cc1c(NC(=O)c2ccc(C(O)(C(F)(F)F)C(F)(F)F)cc2)sc2c1CCC(=O)C2`, the GI50 is 5.59 µM and the TGI turned out to be 30.3 µM.
